The supplement of paper PMC12217912
This is one part of the list. Sequences were assembled here from the parent chain. Inactive controls read about 0.05.

B1: TEV protease; numbered along this chain (parent)
chain: MGESLFKGPRDYNPISSSICHLTNESDGHTTSLYGIGFGPFIITNKHLFRRNNGTLVVQSLHGVFKVKDTTTLQQHLVDGRDMIIIRMPKDFPPFPQKLKFREPQREERICLVTTNFQTKSMSSMVSDTSCTFPSGDGIFWKHWIQTKDGQCGSPLVSTRDGFIVGIHSASNFTNTNNYFTSVPKNFMELLTNQEAQQWVSGWRLNADSVLWGGHKVFMVKPEEPFQPVKEATQL

Variants of: B1
Experiment: raw area under fraction-flipped curve 0-4 h after induction (AUC4h, not background-subtracted), DNA-recorder readout of cleavage of the substrate (dimensionless); higher = more cleavage of the substrate by the protease variant
Conditions: temperature: 34 °C; time window: 0-4 h after rhamnose induction
Protocol: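 In vivo DNA recorder in E. coli TOP10(DE3) ΔrhaA at 34 °C. Each TEVp single-site mutant (parent TEVp 0) is paired with a single-site variant of the 7-mer TEVs (canonical ENLYFQ|S). The substrate sits between flexible linkers in a Bxb1-sfGFP-TEVs-SsrA fusion, so cleavage stabilises Bxb1 and speeds flipping of a recombination array, read by NGS. The value is the raw area under the fraction-flipped curve over 0-4 h after rhamnose induction (AUC4h), with ≥20 reads per time point. It is not background-subtracted; inactive controls average about 0.047.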
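Note: Bxb1 expression induced with 0.2% (w/v) L-rhamnose at OD600 near 0.5, cultures sampled hourly, flipped fraction per protease–substrate barcode pair counted by paired-end Illumina sequencing.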

| Variant | area with substrate ENLAFQS | area with substrate ENLCFQS | area with substrate ENLDFQS | area with substrate ENLEFQS | area with substrate ENLFFQS | area with substrate ENLGFQS | area with substrate ENLHFQS | area with substrate ENLIFQS | area with substrate ENLKFQS | area with substrate ENLLFQS | area with substrate ENLPFQS | area with substrate ENLQFQS | area with substrate ENLRFQS | area with substrate ENLSFQS | area with substrate ENLWFQS | area with substrate ENLVFQS | area with substrate ENLMFQS | area with substrate ENLNFQS | area with substrate ENLTFQS |
| --- | --- | --- | --- | --- | --- | --- | --- | --- | --- | --- | --- | --- | --- | --- | --- | --- | --- | --- | --- |
| L56D | 0.0335 | 0.0506 | 0.048 | 0.0467 | 0.0457 | 0.0481 | 0.0502 | 0.049 | 0.0501 | 0.0488 | 0.0472 | 0.0587 | 0.0594 | 0.0419 | 0.0429 | – | – | – | – |
| D69W | 0.0732 | 0.0629 | 0.063 | 0.0742 | 0.0755 | 0.0788 | 0.0757 | 0.0712 | 0.0637 | – | – | 0.0636 | – | 0.0583 | 0.0671 | 0.0728 | – | – | – |
| D69L | 0.0831 | 0.0584 | 0.0567 | 0.0617 | 0.0712 | 0.0629 | 0.065 | 0.0762 | 0.0705 | 0.0507 | 0.0582 | – | 0.0616 | 0.0602 | – | – | 0.0664 | 0.076 | – |
| K98I | 0.0704 | – | 0.0711 | 0.0606 | 0.0978 | 0.0647 | 0.0716 | 0.0719 | 0.0786 | – | 0.0799 | – | 0.0796 | 0.0591 | 0.0695 | 0.0638 | 0.0601 | 0.0621 | – |
| I85P | 0.0308 | – | 0.0387 | 0.0589 | 0.0215 | – | 0.0233 | 0.0415 | – | 0.0409 | 0.0413 | 0.0364 | 0.0394 | 0.0154 | 0.0231 | – | – | 0.0298 | 0.0509 |
| R102T | 0.0464 | 0.0342 | 0.0643 | 0.0747 | 0.0333 | – | 0.0511 | 0.0571 | 0.0737 | 0.0422 | – | 0.0635 | 0.0504 | 0.0597 | – | – | 0.0593 | 0.0486 | – |
| R102C | 0.0639 | – | 0.0536 | 0.0468 | 0.0532 | 0.0626 | 0.0431 | 0.0566 | 0.0616 | 0.0662 | – | – | 0.0601 | 0.0551 | 0.0571 | – | 0.0407 | 0.0648 | – |
| E108T | 0.0455 | 0.125 | 0.0614 | 0.0656 | 0.0631 | 0.0497 | 0.0235 | 0.0686 | – | – | 0.0577 | 0.0613 | 0.0542 | 0.0543 | – | 0.0674 | – | 0.0598 | 0.0612 |
| D91H | 0.065 | 0.0858 | 0.0542 | 0.0617 | 0.0788 | 0.0481 | 0.0728 | – | 0.0712 | 0.0691 | 0.0631 | 0.0594 | 0.0765 | 0.072 | 0.0851 | 0.0985 | – | 0.0642 | 0.086 |
| D91A | 0.0708 | – | 0.0402 | – | 0.0608 | – | 0.0547 | – | – | 0.0946 | 0.0484 | – | 0.0915 | – | 0.0794 | 0.0905 | 0.0606 | 0.0852 | – |
| D91P | 0.041 | 0.0783 | 0.0616 | – | 0.0396 | – | – | 0.0769 | 0.0799 | 0.0828 | 0.0686 | 0.0541 | 0.0803 | 0.0442 | – | 0.0822 | – | – | – |
| F92H | 0.0672 | – | 0.0644 | – | 0.0899 | – | – | – | 0.0795 | 0.0677 | 0.0496 | 0.0777 | 0.0898 | – | – | – | – | 0.0667 | – |
| K66P | 0.0495 | 0.0596 | 0.0574 | 0.0718 | 0.0715 | 0.0682 | 0.0652 | 0.0678 | 0.0741 | 0.0601 | 0.0518 | 0.0548 | 0.0668 | 0.0539 | 0.0625 | – | 0.0645 | 0.0593 | – |
| F65W | 0.0559 | – | 0.0702 | 0.062 | 0.0841 | – | – | – | – | 0.0795 | 0.0698 | – | 0.0862 | 0.0543 | – | 0.0849 | 0.0858 | 0.0622 | – |
| S60L | 0.036 | – | 0.0565 | – | 0.0758 | – | 0.0666 | – | 0.0645 | 0.0914 | 0.0544 | – | – | 0.0587 | – | – | – | – | – |
| E107W | 0.0724 | – | 0.0612 | – | 0.109 | 0.0664 | 0.0843 | 0.0667 | 0.0636 | – | – | – | – | – | – | 0.1 | 0.0583 | 0.0573 | – |
| V67D | 0.058 | – | 0.0595 | 0.0627 | 0.0533 | 0.0473 | 0.0475 | – | 0.0406 | – | 0.0504 | 0.0501 | – | 0.0503 | 0.0469 | – | – | 0.0531 | – |
| V67T | 0.0591 | 0.0661 | 0.0674 | – | – | 0.0641 | 0.0689 | – | 0.0308 | 0.0754 | 0.0594 | – | 0.0689 | – | – | 0.0818 | – | – | – |
| V67L | 0.0652 | – | 0.0509 | – | 0.0703 | – | 0.0638 | 0.0464 | 0.0775 | 0.0817 | 0.0687 | 0.0754 | 0.0823 | – | – | – | – | 0.0636 | – |
| P94G | 0.0483 | – | 0.0652 | – | 0.0977 | – | – | 0.0961 | – | 0.0554 | 0.0711 | 0.0723 | – | 0.0409 | 0.071 | 0.109 | – | 0.069 | – |
| R106F | 0.0834 | 0.078 | 0.063 | 0.0654 | 0.132 | 0.042 | 0.0702 | 0.0867 | 0.0711 | 0.0728 | 0.0596 | 0.0556 | – | 0.0638 | 0.0557 | – | 0.0675 | 0.0705 | – |
| T72D | 0.0651 | 0.0347 | 0.073 | 0.0631 | 0.0862 | 0.0743 | 0.0673 | – | 0.0737 | – | 0.072 | – | 0.0567 | 0.049 | 0.047 | 0.066 | 0.071 | 0.0656 | 0.0618 |
| Q74V | 0.0671 | 0.0631 | 0.0568 | 0.0557 | 0.0654 | – | 0.0479 | – | 0.0672 | 0.0559 | – | 0.0613 | 0.0514 | 0.0573 | 0.0616 | – | – | 0.0637 | 0.0514 |
| K100E | 0.0556 | – | 0.0607 | – | 0.0656 | 0.0792 | 0.063 | 0.0733 | 0.0767 | 0.0719 | 0.0567 | – | 0.088 | 0.0605 | 0.0692 | – | 0.061 | 0.0648 | – |
| K100V | 0.0744 | – | 0.0593 | 0.0589 | 0.0843 | – | 0.0712 | – | – | 0.0781 | 0.063 | 0.0762 | 0.0737 | 0.0724 | 0.0613 | 0.076 | – | 0.0533 | – |
| I84W | 0.0571 | 0.061 | 0.0503 | – | 0.0478 | – | 0.0577 | 0.0627 | 0.0544 | 0.0057 | 0.0522 | 0.0731 | 0.0504 | 0.0545 | 0.0516 | 0.0415 | – | 0.0456 | – |
| T71C | 0.0586 | 0.0668 | 0.0645 | 0.0733 | 0.0795 | – | 0.0676 | 0.0892 | 0.0749 | – | 0.0569 | 0.0671 | – | 0.0559 | 0.0592 | – | 0.0748 | 0.063 | 0.0673 |
